# Source: PubChem BioAssay AID504339 (National Center for Advancing Translational Sciences (NCATS), 2011)
# Among all 390,000 compounds or so, about 17,000 (4.4%) were called active. Inconclusive results, whose numbers are uncertain, are shown with a selection of clear calls. The call rests on the fitted dose curve; in most records, active means well fitted inhibition curve with a large enough effect; inconclusive means small, poorly fitted or top-dose-only effect; inactive means no such curve, though single readings can be large or run the other way. Potencies beside an inconclusive call are fits to weak or partial responses and may not hold up.
# Molecular target: Lysine-specific demethylase 4A (Homo sapiens) (UniProt O75164)
# UniProt O75164, sequence (O75164 whole entry, looked up, the tested form may be a part): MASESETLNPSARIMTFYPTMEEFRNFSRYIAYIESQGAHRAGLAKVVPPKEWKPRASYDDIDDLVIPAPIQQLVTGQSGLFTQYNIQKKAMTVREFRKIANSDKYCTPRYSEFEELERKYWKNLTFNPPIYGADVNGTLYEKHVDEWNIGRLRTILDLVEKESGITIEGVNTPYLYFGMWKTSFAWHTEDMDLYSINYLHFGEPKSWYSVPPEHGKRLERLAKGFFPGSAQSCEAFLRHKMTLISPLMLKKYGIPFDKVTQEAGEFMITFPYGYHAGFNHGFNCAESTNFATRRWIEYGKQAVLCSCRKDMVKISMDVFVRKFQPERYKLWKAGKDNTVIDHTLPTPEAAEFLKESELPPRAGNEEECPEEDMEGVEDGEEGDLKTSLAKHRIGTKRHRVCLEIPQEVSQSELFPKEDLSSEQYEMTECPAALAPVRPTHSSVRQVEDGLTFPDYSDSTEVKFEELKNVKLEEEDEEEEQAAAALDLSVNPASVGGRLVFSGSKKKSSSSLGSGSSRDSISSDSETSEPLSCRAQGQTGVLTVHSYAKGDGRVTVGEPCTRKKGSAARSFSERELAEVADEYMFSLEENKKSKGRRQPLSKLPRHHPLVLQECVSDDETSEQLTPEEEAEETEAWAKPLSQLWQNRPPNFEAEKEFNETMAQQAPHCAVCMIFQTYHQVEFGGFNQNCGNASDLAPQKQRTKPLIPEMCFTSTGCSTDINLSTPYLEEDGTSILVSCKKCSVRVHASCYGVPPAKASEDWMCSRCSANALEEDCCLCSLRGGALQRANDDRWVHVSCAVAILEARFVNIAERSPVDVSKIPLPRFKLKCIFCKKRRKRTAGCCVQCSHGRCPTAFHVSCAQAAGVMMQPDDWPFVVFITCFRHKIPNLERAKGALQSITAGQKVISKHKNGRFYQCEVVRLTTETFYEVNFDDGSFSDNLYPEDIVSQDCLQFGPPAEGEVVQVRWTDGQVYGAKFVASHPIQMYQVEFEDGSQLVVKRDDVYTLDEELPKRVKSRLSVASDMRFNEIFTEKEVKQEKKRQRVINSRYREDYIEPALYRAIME
# Assay: qHTS Assay for Inhibitors of JMJD2A-Tudor Domain; further: nearly all actives have a fitted effect of over 50% in size
# Conditions: AlphaScreen JMJD2A-Tudor / H3K4me3 peptide binding; activity change, negative = inhibition: at 114 µM (top of the series)
# On the % scale 0 is the no-effect control and ±100 the full control effect; potency means the concentration at half of the fitted maximal effect; tags describe the fitted curve by direction and shape.
Compound,Potency,"activity change, negative = inhibition"
CCN1CCN(C(c2ccc(OC)cc2)c2c(O)cc(C)n(Cc3ccco3)c2=O)CC1 (centres undefined),active: 79.4 µM,–
CC(C)(C)C(=O)N/C(N)=N/c1nc2ccccc2o1,–,inactive: 8.54%
COc1ccc(CN2C(=O)c3ccccc3C2=O)cc1C(=O)Nc1ccccc1N1CCOCC1,"inconclusive: 17.8 µM [inhibitor, partial curve]",–
O=C(OCc1cnc(Cl)s1)c1ccccc1Cl,–,inactive: 47%
COc1ccc([N+](=O)[O-])cc1C1NN=C(c2ccccc2O)S1 (centres undefined),"inconclusive: 100 µM [inhibitor, partial curve, poor fit]",–
COc1cc(C(=O)OCc2cc(=O)n3nc(C4CCCCC4)sc3n2)cc(OC)c1OC,–,inactive: -12.7%
CCCNS(=O)(=O)c1ccc2nc(NC(=O)c3ccc(F)cc3)sc2c1,active: 50.1 µM,–
O=C(c1ccc(Br)cc1)N(Cc1nc2ccccc2c(=O)[nH]1)C1CCCC1,–,inactive: -17.5%
CCc1cccc(-n2c(=O)c3cccnc3n2CC(=O)NCc2ccccc2)c1,–,inactive: 14.9%
COc1ccc(C2NC(=O)NC(C)=C2C(=O)OC2CCCC(C)C2)cc1 (centres undefined),"inconclusive: 28.2 µM [inhibitor, partial curve]",–
CN1N=C(N)c2cn(C3OC(COP(=O)(O)O)C(O)C3O)c3ncnc1c23 (centres undefined),"inconclusive: 89.1 µM [inhibitor, single point]",–
CN(C)S(=O)(=O)c1ccc(C(=O)OCc2nnc(-c3ccccc3)o2)cc1,–,inactive: -1.06%
Nc1nc(SCC(=O)NNc2c(Cl)cc(Cl)cc2Cl)n[nH]1,"inconclusive: 70.8 µM [inhibitor, single point]",–
Cn1c(NCCCN2CCOCC2)nc2c1c(=O)n(Cc1ccc(Cl)c(Cl)c1)c(=O)n2C,"inconclusive: 50.1 µM [inhibitor, partial curve]",–
CCOC(=O)c1ccc2[nH]c3c(c2c1)CCCC3C(=O)OCC (centres undefined),"inconclusive: 56.2 µM [inhibitor, partial curve]",–
N#C/C(=C\c1c(N2CCCCCC2)nc2ccccn2c1=O)C(=O)NCc1ccco1,"inconclusive: 35.5 µM [inhibitor, partial curve]",–
Cc1nc2ccc(NC(=O)NCCO)cc2s1,–,inactive: -10.6%
CCOc1ccc(/C=C/C(=O)Nc2sc3c(c2C(=O)OC)C(C(=O)OC)CC3)cc1 (centres undefined),active: 56.2 µM,–
c1ccc(-n2cc(CN3CCCC(CN4CCCC4)C3)c(-c3ccc4c(c3)OCO4)n2)cc1 (centres undefined),"inconclusive: 56.2 µM [inhibitor, partial curve]",–
O=C(NCC(=O)N1CCCC(C(F)(F)F)C1)c1cccs1 (centres undefined),–,inactive: 2.41%
O=C(CN1CCCCC1)Nc1nc(-c2ccccc2)cs1,"inconclusive: 31.6 µM [inhibitor, partial curve]",–
Nc1ccc(N2CCOCC2)c(S(=O)(=O)Nc2cc(Cl)ccc2Cl)c1,"inconclusive: 63.1 µM [inhibitor, partial curve]",–
Cc1ccc(C2=C(O)C(=O)C(c3ccc(C)cc3)=C(O)C2=O)cc1,active: 25.1 µM,–

Compound,Potency,"activity change, negative = inhibition"
Cc1ccccc1Nc1sc(C(=O)c2ccccc2)c(N)c1C(=O)NCc1ccc(Cl)cc1,"inconclusive: 28.2 µM [inhibitor, partial curve]",–
O=C(COC(=O)c1ccc(Cl)c(S(=O)(=O)N2CCCC2)c1)NCc1ccccc1,"inconclusive: 25.1 µM [inhibitor, full curve, poor fit]",–
Cc1nn(-c2ccc(Cl)cc2)c(=O)c2ccccc12,–,inactive: -8.6%
COc1cc2c(cc1OC)C(COc1ccc(F)cc1)N(C(=O)c1ccco1)CC2 (centres undefined),"inconclusive: 50.1 µM [inhibitor, partial curve]",–
CN(C)c1ccc(N=Nc2ccccc2C(=O)OCC(=O)N2CCCC2)cc1,active: 56.2 µM,–
Cc1ccc(N2C(=O)CC(Sc3nc4ccccc4o3)C2=O)cc1Cl (centres undefined),"inconclusive: 100 µM [inhibitor, single point]",–
CCCn1c(SCc2nc3ccccc3s2)n[nH]c1=O,"inconclusive: 89.1 µM [inhibitor, partial curve]",–
O=C(Nc1nc(-c2ccccc2)cs1)c1cccc([N+](=O)[O-])c1,"inconclusive: 35.5 µM [inhibitor, partial curve]",–
O=C(c1cccnc1)N(c1cc2sc(=O)oc2c2ccccc12)S(=O)(=O)c1ccccc1,active: 25.1 µM,–
CC/C(=N\NC(=O)CNC(=O)/C=C/c1ccco1)c1ccccc1,"inconclusive: 56.2 µM [inhibitor, partial curve]",–
O=C(CSc1ccc2nnc(-c3ccccn3)n2n1)N1CCOCC1,"inconclusive: 89.1 µM [inhibitor, single point]",–
C#CCOCCOCCOCCNc1nc(N2CCN(C(=O)C([C@@H](C)O)n3cc([C@@H](N)CCCCN)nn3)CC2)nc(N2CCN(C(=O)[C@H](CCCCN)n3cc([C@@H](N)[C@H](C)CC)nn3)CC2)n1 (some centres undefined),"inconclusive: 79.4 µM [inhibitor, single point]",–
CCc1nn(C(C)C(=O)N2CCN(c3cccc(C(F)(F)F)c3)CC2)c(=O)c2cc3occc3n12 (centres undefined),"inconclusive: 39.8 µM [inhibitor, partial curve]",–
Cc1cccc(CSCc2ccc(C(=O)O)o2)c1,–,inactive: -26.5%
Cc1ccccc1N1CCN(CCCOc2ccc3c(C)cc(=O)oc3c2)CC1,"inconclusive: 25.1 µM [inhibitor, full curve]",–
CCN(CC)c1ccc(NC(=O)CCNS(=O)(=O)c2ccc3c(c2)CCC(=O)N3)c(C)c1,"inconclusive: 50.1 µM [inhibitor, partial curve]",–
CC(=O)c1sc(-c2ccccc2)cc1NS(=O)(=O)c1ccc(C)cc1,–,inactive: 11.7%
O=C(O)C(O)C(O)c1nc2ccccc2[nH]1 (centres undefined),–,inactive: -12% [at 11.4 µM]
O=C1C(c2cc(=O)c3ccccc3[nH]2)=C(O)c2ccccc21,"inconclusive: 50.1 µM [inhibitor, partial curve]",–
CCN(CC)S(=O)(=O)c1ccc(NN=C2CCN(C)CC2)c([N+](=O)[O-])c1,"inconclusive: 79.4 µM [inhibitor, partial curve]",–
C=CCn1c(-c2csc3c2CCC(C)C3)n[nH]c1=S (centres undefined),"inconclusive: 70.8 µM [inhibitor, single point]",–
O=C1NC(=Nc2ccc3ccccc3c2)S/C1=C/c1ccco1,"inconclusive: 63.1 µM [inhibitor, partial curve]",–
COC(=O)c1ccccc1NC(=O)c1cc2ncc(Br)cn2n1,"inconclusive: 56.2 µM [inhibitor, partial curve]",–

Compound,Potency,"activity change, negative = inhibition"
CN1CCc2c(sc3nc(SCC(=O)N4CCOCC4)n(-c4ccc(Cl)cc4)c(=O)c23)C1,–,inactive: -25%
CCc1ccc(C2c3[nH]c4ccccc4c3CCN2C(=O)CN2CCN(CC)CC2)cc1 (centres undefined),"inconclusive: 25.1 µM [inhibitor, single point]",–
CN1CCN(c2cc(-c3cc(O)c4ncccc4c3)ccn2)CC1,active: 25.1 µM,–
O=C(O)C1Nc2c(C(=O)N3CCOCC3)cccc2C2C=CCC12 (centres undefined),active: 11.2 µM,–
CCC1(c2ccccc2)NC(=O)N(CC(=O)Nc2ccc(N3CCCC3)cc2C)C1=O (centres undefined),active: 44.7 µM,–
O=C(NC1CC2CCCC(C1)N2Cc1ccccc1)c1cccc(Cl)c1 (centres undefined),–,inactive: 2.72%
N#C/C(=C\c1ccc(O)c(O)c1)C(=O)NCc1ccccc1,"inconclusive: 50.1 µM [inhibitor, partial curve]",–
COc1ccc(N(CC(=O)N2CCN(c3cccc(C)c3)C(C)C2)S(=O)(=O)c2c(C)n[nH]c2C)cc1 (centres undefined),"inconclusive: 79.4 µM [inhibitor, partial curve]",–
O=C(c1ccccc1Br)N1CCc2c([nH]c3ccccc23)C1,"inconclusive: 50.1 µM [inhibitor, partial curve]",–
CCCC(c1nnnn1C1CCCCC1)N1CCN(C2CCCC2)CC1 (centres undefined),–,inactive: -32.8%
COc1cc(/C=C/C(=O)OC(C)C(=O)c2ccccc2)cc(OC)c1OC (centres undefined),–,inactive: -7.53%
CSCc1cc(N(C)c2ccccc2)nc(-c2ccccn2)n1,"inconclusive: 63.1 µM [inhibitor, partial curve, poor fit]",–
CC(c1ccccn1)N(Cc1ccco1)C(=S)Nc1cccc(F)c1 (centres undefined),"inconclusive: 14.1 µM [inhibitor, partial curve]",–
NC(=O)CC[C@H](NC(=O)c1ccc(F)cc1)C(=O)OCC(=O)NCc1ccc(F)cc1,active: 14.1 µM,–
CC(C)c1ccc(N2C(=O)CC(Sc3ncn[nH]3)C2=O)cc1 (centres undefined),active: 7.08 µM,–
COc1ccc(C2Nc3ccccc3C(=O)N2Cc2cccc3ccccc23)cc1COc1ccc(NC(C)=O)cc1 (centres undefined),active: 79.4 µM,–
Cn1c(Cc2ccccc2)nnc1SCC(=O)Nc1ccc(N2CCOCC2)cc1,"inconclusive: 89.1 µM [inhibitor, single point]",–
CN1CCc2c(sc(NC(=O)CS(=O)(=O)c3ccccc3)c2C(N)=O)C1,–,inactive: -21.3%
Cc1ccc(C)c(OCC(=O)Nc2cc(NC(=O)COc3cc(C)ccc3C)cc(C(=O)O)c2)c1,"inconclusive: 79.4 µM [inhibitor, partial curve]",–
CCCCn1nnc(NC(=S)NC(=O)c2ccc(-c3cccc(Cl)c3Cl)o2)n1,"inconclusive: 39.8 µM [inhibitor, single point]",–
CCCCn1cc2c(c1-c1ccccc1Br)c(=O)n(C)c(=O)n2C,"inconclusive: 70.8 µM [inhibitor, single point]",–
C/C(CC(=O)Nc1ccc(N(C)C)cc1)=N\NC(=O)C(=O)NCc1ccccc1,"inconclusive: 50.1 µM [inhibitor, partial curve]",–
Cc1cc2c(cc1C)N(C(=O)CSC1=NCCS1)C(C)(C)c1ssc(=S)c1-2,active: 6.31 µM,–
